# The supplement of paper PMC3334620
# In all, about 33,000 sequences were measured (“E-score (-0.5 to 0.5)”: median about -0.013, highest 2% from about 0.3 on). The list shows a part of the results.
# Biological target: T1, Msn1 (UniProt P22148)
# T1 sequence: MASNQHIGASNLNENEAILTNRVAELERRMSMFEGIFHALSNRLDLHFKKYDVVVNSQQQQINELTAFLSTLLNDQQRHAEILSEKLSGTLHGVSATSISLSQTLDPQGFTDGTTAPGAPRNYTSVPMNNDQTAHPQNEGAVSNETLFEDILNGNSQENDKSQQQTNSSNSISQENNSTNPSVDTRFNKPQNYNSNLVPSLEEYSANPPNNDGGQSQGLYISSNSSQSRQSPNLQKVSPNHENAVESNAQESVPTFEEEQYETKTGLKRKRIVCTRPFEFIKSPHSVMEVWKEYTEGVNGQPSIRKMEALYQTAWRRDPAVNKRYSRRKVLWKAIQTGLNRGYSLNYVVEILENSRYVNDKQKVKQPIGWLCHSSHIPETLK
# Experiment: PBM E-score (8-mer binding enrichment) (E-score (-0.5 to 0.5)); higher = stronger / more preferred TF binding; most listed sequences are background and not binding sites
# Conditions: protein concentration: 200 nM; construct: GST-full length
# How it was run: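 GST-tagged yeast TFs (full-length or DNA-binding domain) were made by PURExpress in vitro transcription/translation and applied at about 100-200 nM to universal all-10-mer Agilent arrays. The arrays were made double-stranded by primer extension, on fresh or once-stripped slides. Bound protein was detected with fluorescent anti-GST, and scans were normalised with masliner. Each ungapped eight-base word, pooled with its reverse complement, received an E-score (modified Wilcoxon-Mann-Whitney statistic) from the Universal PBM Analysis Suite.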
row,Sequence,PBM E-score
1,CTCAACAC,-0.00239
2,CCACTCCC,-0.272
3,ATCTATAC,0.0829
4,CGGCTTGC,-0.0534
5,AACACAGC,0.225
6,ACCCACCC,-0.165
7,GGTAGTAC,-0.071
8,CTCCCGCA,-0.12
9,GACATCAA,0.285
10,AACACAAG,-0.0716
11,TGAAAACA,0.178
12,AGAAAGCA,0.0764
13,AAGGTATG,0.0446
14,ATTCGAGA,0.0754
15,ACTTGTGA,-0.103
16,GGAAGGAA,-0.223
17,AGTCCCTC,-0.0351
18,ACTCCGTC,-0.0715
19,GCCCGAAC,0.0645
20,CTCTCGGC,-0.126
21,AAGTGGGA,0.159
22,CCTCAACC,-0.234
23,AGCTAGCC,-0.155
24,ACTTACAG,0.09
25,CGCGGTCA,-0.0597

row,Sequence,PBM E-score
1,ACATCGGG,-0.00528
2,GAACCTAC,-0.19
3,ACTTAGTA,0.0124
4,AAGCCTGA,-0.125
5,GTACTAGA,0.308
6,AAAATCCC,-0.0379
7,GCTGACAA,0.224
8,CTTGCAAC,0.0457
9,ATACAGAG,-0.0876
10,GCCGCAAC,-0.126
11,ATCAACGC,-0.0121
12,GGTGCCCA,-0.227
13,AGTACGTG,-0.0456
14,CCAGCTAG,-0.16
15,CTCAGGCA,-0.0313
16,AGAAGAAG,-0.0785
17,GATAGCGA,-0.0372
18,CCTGTGCC,-0.211
19,CTGGTCCA,-0.0285
20,ATACCGCA,-0.00103
21,CCGATGCA,-0.0829
22,AATACGAT,0.113
23,GTTGGCGA,-0.0279
24,CCGGATCA,0.0422
25,CAGTCTCG,-0.093

row,Sequence,PBM E-score
1,ATACAGGG,0.0373
2,CTCTACTA,-0.0557
3,ATACGCGA,0.0515
4,GTAGATGA,0.0935
5,TGGATCCA,0.198
6,GGCGAAAC,-0.027
7,AATCTTAG,0.0592
8,AGTGTTAT,-0.0666
9,ATTTGCGC,0.104
10,GATCCCAC,0.0423
11,CTGCCATA,0.0725
12,AGCGCTAC,-0.227
13,AAAGAGGG,-0.307
14,GCGTTTGA,0.0269
15,AATATTGT,0.35
16,AGCATATC,0.0418
17,TAACCATA,0.00151
18,AATCTAAC,-0.16
19,ATGATCCA,-0.0944
20,ACTACGTA,0.0555
21,CCCATCTA,-0.192
22,ACACCATA,0.0891
23,CCCAACTA,0.0148
24,CCCGAGAG,-0.0266
25,CTACGTGA,-0.136

row,Sequence,PBM E-score
1,AATTCGCC,0.157
2,GCGGGCAA,-0.0658
3,ATAGCTGC,0.0597
4,CATTCGTC,0.0978
5,GGTTGGCA,-0.217
6,CTAAGTCA,0.0777
7,GAGAAAGA,-0.0338
8,TCTAGGAA,0.00834
9,CGAAAACC,0.123
10,CGTTAACC,-0.0501
11,AATATTAT,0.208
12,GACTGAAA,0.225
13,AGCCATCA,0.00249
14,AGGCCCTA,-0.111
15,AGATACTA,0.0557
16,ACATTCGG,0.122
17,GAACAGCC,-0.161
18,CAGGTAGG,-0.174
19,CACTTGGA,0.121
20,AGAGTCAC,-0.0689
21,ACTAGTAA,0.11
22,CTCCCTCC,-0.203
23,CAACTGCG,-0.0264
24,AACCATAC,-0.0629
25,TGACTACA,-0.0612

row,Sequence,PBM E-score
1,CACTACGC,-0.14
2,ATCCAGGA,-0.015
3,GAGCAAAA,-0.0408
4,CAAGTGTA,0.0882
5,ACAAGGAA,0.178
6,CTACTATA,0.0598
7,GCGCGCAA,0.00272
8,ACAATCCC,0.0591
9,AAGTTGGT,0.114
10,AGTACTCA,0.0998
11,GGGGGTTA,-0.344
12,CCGGGATA,0.101
13,CGCCGTCC,-0.0782
14,GTACCGGA,0.214
15,CGGGCGAC,-0.0832
16,AGTCGTGA,0.065
17,CTATGTGC,-0.0695
18,ACTAGAGA,0.0455
19,CCGGTCTC,-0.0542
20,AGCATGCG,-0.0235
21,AGCAGAAC,0.0181
22,CGGGAATA,0.0169
23,GGGGTTAC,-0.366
24,CTTGGACC,-0.163
25,GACCATAC,0.115

row,Sequence,PBM E-score
1,GGCGACCC,-0.458
2,ACGTTGGC,-0.122
3,CGTATTGC,0.0136
4,AAGTTCAG,0.0276
5,GACTGGTA,-0.022
6,AGCACTTG,-0.231
7,AAACGCAG,0.0105
8,AGTTAAGA,0.0786
9,CGCTGACC,0.00598
10,ACCTTCCC,-0.206
11,CTAGCACC,0.0912
12,GCTCAGCC,-0.197
13,GGGACCAA,-0.0643
14,CAAACTAA,0.24
15,AAGGATTC,-0.0884
16,AATATACT,-0.0295
17,CCTTACAA,-0.0555
18,AGTAGTAG,-0.116
19,ACTTGCCC,-0.0294
20,GAGGGGCC,-0.305
21,CTCCGCCA,-0.2
22,TATGGTGA,-0.0581
23,CGATCCCG,-0.23
24,CTGTCGGC,-0.108
25,AGCGTGGC,-0.0004

row,Sequence,PBM E-score
1,AATCTATG,0.195
2,GATTTGAC,-0.0517
3,CCAGCTGC,-0.3
4,CGAAACCC,0.00265
5,ACACGCTG,-0.071
6,ATAAGCTC,-0.0844
7,ACTTCGCT,-0.0222
8,CATAGTTA,-0.00457
9,CCCTGACA,0.0682
10,CCCCGCGA,-0.0204
11,ATAGCCCA,-0.0783
12,TACAACGA,0.0864
13,CAATTTGA,0.046
14,CGGAGGTC,0.0119
15,GAGGACAA,0.466
16,GCAGCTAC,-0.0142
17,CCCATGCG,-0.0652
18,TATATCAA,0.144
19,CGCCTAAA,-0.0501
20,AGGTCAGC,-0.0455
21,AAGATTTA,-0.0196
22,AGTACGTC,0.0255
23,AATACTTG,0.027
24,CACGCAGC,-0.183
25,ATAGATCG,0.0721

row,Sequence,PBM E-score
1,CTCTAAAA,0.0281
2,CAAGTTAG,0.074
3,CCGTTGTA,0.187
4,GCGTGTAC,0.203
5,CCACGCGC,-0.165
6,GAGTTTCA,-0.0592
7,GATTTCGC,0.187
8,ATTGATCA,-0.0402
9,AGTGACCC,-0.109
10,CGCGATTA,0.0779
11,CCCAAACA,0.176
12,AATATCGC,-0.0104
13,CCGCCACA,-0.168
14,CTTTTTCC,0.0714
15,AGATATAT,0.201
16,GGTAGAAA,-0.00447
17,GCATCTCC,-0.242
18,CGCCAACC,-0.228
19,ACACTCTC,0.0367
20,AGCGAAAC,0.261
21,AGGGTATC,-0.0728
22,AACACGTC,0.0815
23,AACAACCT,0.114
24,GAGGTCGA,-0.13
25,GTGGATAA,0.116

row,Sequence,PBM E-score
1,AGGCCTTG,-0.292
2,AAACAACG,0.0325
3,CGGCCCGC,-0.182
4,CGGTAGAG,-0.298
5,AGGCTGGC,-0.382
6,AGAAGCCT,0.0272
7,AGAATAAC,-0.0809
8,AAAATATC,0.16
9,CGGTACAA,0.311
10,AGTCCATG,0.196
11,ACCTGAAC,-0.066
12,GCTGATCC,-0.00559
13,TCACCCAA,0.0406
14,GCCGTCGA,0.0896
15,ATGGAGGG,-0.151
16,ATTGCCGC,-0.0726
17,GGCTCCCA,-0.174
18,CAACCACC,-0.121
19,AAGATGGG,-0.00663
